# The full ranking holds about 110,000 compounds; the median of “z-score” is about -0.1, and the highest 2% start at about 2. The list shows a part of the results. Active and inactive are the calls of the source.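 The calls were made as follows: active = z-score in the third read window above 3 or below -3; inactive = the rest.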
# Biological target: Metabotropic glutamate receptor 8 (Rattus norvegicus) (UniProt P70579)
# Assay: rat mGluR8 modulators via GIRK flux, primary screen, cell-based, thallium flux, HTS (AID 488969)
# Settings: HEK293 rat mGluR8, GIRK (G protein-gated inwardly rectifying potassium channel) thallium flux, FluoZin2; at 10 µM; stronger effect = higher value; submaximal glutamate (EC20) added with thallium
# Sequence of UniProt P70579 (P70579 whole entry, looked up): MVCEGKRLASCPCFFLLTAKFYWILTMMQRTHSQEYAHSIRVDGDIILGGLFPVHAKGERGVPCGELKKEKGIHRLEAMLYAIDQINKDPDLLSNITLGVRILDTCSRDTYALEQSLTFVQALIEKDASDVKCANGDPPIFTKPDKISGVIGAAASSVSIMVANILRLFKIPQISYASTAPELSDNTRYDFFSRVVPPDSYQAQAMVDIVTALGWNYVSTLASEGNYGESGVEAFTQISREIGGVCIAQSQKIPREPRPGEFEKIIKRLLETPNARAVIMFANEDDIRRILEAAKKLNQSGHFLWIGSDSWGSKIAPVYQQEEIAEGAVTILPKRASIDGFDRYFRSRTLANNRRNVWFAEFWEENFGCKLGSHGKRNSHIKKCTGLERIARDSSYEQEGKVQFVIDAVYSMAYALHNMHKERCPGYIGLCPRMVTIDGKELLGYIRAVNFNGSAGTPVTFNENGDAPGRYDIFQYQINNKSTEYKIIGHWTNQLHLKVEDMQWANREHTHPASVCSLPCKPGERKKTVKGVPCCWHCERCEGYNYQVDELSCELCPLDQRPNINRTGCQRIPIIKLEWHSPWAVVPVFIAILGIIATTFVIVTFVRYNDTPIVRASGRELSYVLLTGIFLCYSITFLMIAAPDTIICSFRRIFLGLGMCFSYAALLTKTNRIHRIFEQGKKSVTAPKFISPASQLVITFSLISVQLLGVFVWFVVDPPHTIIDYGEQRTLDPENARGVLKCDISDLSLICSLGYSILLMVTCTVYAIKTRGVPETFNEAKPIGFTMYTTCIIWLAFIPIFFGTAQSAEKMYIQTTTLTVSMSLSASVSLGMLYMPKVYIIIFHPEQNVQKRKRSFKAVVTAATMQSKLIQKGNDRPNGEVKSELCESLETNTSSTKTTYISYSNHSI
row,SMILES,z-score
1,O=C(NC1CCCC1)C(c1ccc(F)cc1)N(Cc1ccccc1Cl)C(=O)CCl (stereo not given),-0.0267
2,CCc1n[nH]c2c1C(=O)CC(C)(C)C2,-0.313
3,C/C(CC(=O)NCc1ccco1)=N\NC(=O)Cc1ccccc1,0.118
4,O=C(Nc1ccccc1F)c1ccc(CNS(=O)(=O)c2cccc(C(F)(F)F)c2)cc1,0.0314
5,CCOC(=O)c1c(C)[nH]c(C(=O)Cn2nnc(-c3ccc(Cl)cc3)n2)c1C,-0.242
6,COc1ccc(C(=O)Nc2ccc(S(=O)(=O)N3CCc4ccccc43)cc2)cc1,0.257
7,CCC(=O)N[C@@H]1CC(C(C)(C)NC(=O)CC)CC=C1C (stereo not given in full),-0.0475
8,CCCc1cc(C(=O)Nc2ccc(C)cc2)no1,0.229
9,COC(=O)c1cn(C)c2ccc(S(=O)(=O)N3CC(C)CC(C)C3)cc2c1=O (stereo not given),-0.281
10,c1ccc(SCCOCCn2cncn2)cc1,-0.483
11,CCOC(=O)c1cc2c(C(F)(F)F)cc(-c3cccnc3)nc2o1,-0.353
12,COc1ccc(C2Nc3ccccc3C(=O)N2c2ccc(C)cc2)cc1Cn1cc([N+](=O)[O-])cn1 (stereo not given),-0.254
13,CC1CCCC/C1=N/Nc1ccc([N+](=O)[O-])cc1[N+](=O)[O-] (stereo not given),-0.242
14,O=C(O)CCCCCCNS(=O)(=O)c1ccccc1,0.646
15,O=C(Cc1ccccc1)Nc1nc(-c2cccs2)cs1,2.99
16,COc1cccc(C(=O)CSc2nnc(-c3cc(OC)cc(OC)c3)o2)c1,0.263
17,COCCOC(=O)c1c(C)oc2ccc(OC(=O)COc3c(F)c(F)c(F)c(F)c3F)cc12,-0.171
18,CCN(Cc1ccccc1)C(=O)CC1Oc2ccccc2NC1=O (stereo not given),-0.296
19,NC1=NC(=Nc2ccc(Cl)cc2)c2ccccc21,-0.537
20,Cc1ccc(CNC(=O)CCc2nc(-c3cccs3)no2)cc1,-0.128
21,CCOC(=O)Nc1ccc2c(c1)N(C(=O)N1CCN(C)CC1)c1ccccc1S2,1.42
22,O=C(c1ccccn1)c1cc2ccccc2n1S(=O)(=O)c1ccccc1,-0.502

row,SMILES,z-score
1,COc1ccc(CN(C)C(=O)COC(=O)c2ccc3c(c2)OCO3)cc1OC,0.00886
2,COc1ccc(OC)c(NC(=O)CN2C(=O)NC3(CCOc4ccccc43)C2=O)c1 (stereo not given),-0.196
3,O=[N+]([O-])c1cc([N+](=O)[O-])c(N2CCCCCC2)cc1NCCO,-0.126
4,Cc1cccc(C(=O)Oc2ccc(/C=N/NC(=O)Cc3ccc([N+](=O)[O-])cc3)cc2)c1,0.0891
5,N#Cc1nc(Cc2cccc3ccccc23)oc1N1CCN(c2ccccc2)CC1,-0.301
6,CC(C)OC(=O)CSc1nnc(-c2ccc(O)cc2)n1Cc1ccccc1,0.78
7,C=CCOc1nc2c(c(=O)n(C)c(=O)n2C)n1Cc1ccc(Cl)cc1,0.154
8,COc1ccc(S(=O)(=O)N(CC(=O)NCCCN(C)C)c2ccc(C)cc2)cc1OC,-0.419
9,Cc1cc(C)c(C)c(OCC(=O)N2CCOCC2)c1,-0.162
10,CN(C)S(=O)(=O)c1cccc(NC(=O)c2cc3c(=O)n4ccccc4nc3s2)c1,-0.159
11,O=C(CSc1nnc(-c2ccc(Cl)cc2Cl)n1C1CCCCC1)NC1CCS(=O)(=O)C1 (stereo not given),-0.0533
12,CC(C)(C)c1ccc(C(=O)NC(=S)NCC2CCCO2)cc1 (stereo not given),1.62
13,COc1ccc(C(=O)NCCn2cc(SCC(=O)Nc3nnc(C)s3)c3ccccc32)cc1,0.49
14,CN(CC(=O)OCC(=O)Nc1ccccc1)S(=O)(=O)c1ccc(Cl)cc1,-1.07
15,CCC(=O)Nc1ccc(N2CCN(Cc3ccccc3F)CC2)cc1,-0.191
16,Cc1nnc(SCc2ccc(F)cc2)s1,0.759
17,CCN(C(=O)Nc1ccccc1OC)c1c(N)n(Cc2ccccc2)c(=O)[nH]c1=O,-0.178
18,COc1cc2[nH]c(=O)c(C(=O)NCCCN3CCCCC3)c(O)c2cc1OC,0.35
19,CCCCNC(=O)c1ccccc1NS(=O)(=O)c1ccc2c(c1)OCCO2,0.243
20,CCOC(=O)c1ccc(Oc2c(C)oc3c(CN4CCN(C)CC4)c(O)ccc3c2=O)cc1,-0.486
21,Cc1ccc(-n2c(SCc3ccc([N+](=O)[O-])cc3)nc3ccccc3c2=O)cc1,-0.163
22,CCN(CC)C(=O)CN(c1cccc(OC)c1)S(=O)(=O)c1ccc(C)cc1,0.331

row,SMILES,z-score
1,Cc1ccc(C(=O)NNC(=S)Nc2cccc(Cl)c2Cl)cc1[N+](=O)[O-],-1.23
2,CCN1CCN(C(=S)NCC(C)C)CC1,0.198
3,Cc1cccc(C)c1N1CCc2cn[nH]c21,-0.273
4,COc1ccc(NC(=O)CN2c3cccc4cccc(c34)S2(=O)=O)c(OC)c1,-1.14
5,CCCCS/C(N)=N/N=C/c1ccccc1O,-0.147
6,Cc1cc(C)n(-c2ccc(C(=O)Nc3ccc(C)c(S(=O)(=O)N(C)C)c3)cc2)n1,-0.491
7,Cc1nc(SCC(=O)Nc2cc(C)on2)c2c3c(sc2n1)CCCC3,2.03
8,O=C(COC(=O)/C=C/c1cccc(C(F)(F)F)c1)NCc1ccc(F)cc1,-0.0886
9,C/C(=N\OC(=O)c1ccccc1)c1cc(-c2ccc(Cl)cc2)no1,-0.0857
10,COc1ccccc1NC(=O)c1ccc(N)cc1,0.511
11,Cc1csc2nc(CNC(=O)C3CC=CCC3C(=O)O)cn12 (stereo not given),-0.0699
12,COc1ccc(-n2nnc3c(SCC(=O)c4ccccc4)ncnc32)cc1,-0.292
13,COc1ccc(OC)c(S(=O)(=O)N2c3cc(F)ccc3CCC2C)c1 (stereo not given),-0.709
14,CN(C)c1ccc(-c2nc3ccccn3c2/N=C/c2ccc(Br)cc2)cc1,-1.35
15,Oc1ccc(F)cc1-c1cc(-c2ccc3c(c2)OCCO3)n[nH]1,0.0053
16,O=S(=O)(C(=CNc1ccccc1)S(=O)(=O)c1ccccc1)c1ccccc1,-0.251
17,Cc1ccccc1OC/C(O)=C(\C#N)c1nc2ccccc2[nH]1,-0.143
18,Cc1cc(=O)[nH]c(-n2[nH]c3c(c2=O)CCCC3)n1,0.145
19,S=c1[nH]ccn1-c1cccc(Cl)c1,2.29
20,O=C(Cn1cnc2ccccc21)N/N=C/C(Br)=C/c1ccccc1,-0.123
21,CCOCCCNC(=O)COc1ccc(OC)cc1,-0.32
22,CCOC(=O)c1cc2sccc2n1CC(=O)N1CCN(C(=O)c2ccco2)CC1,-0.106

row,SMILES,z-score
1,COc1ccc2[nH]c3c(c2c1)CN(C)CC3,0.187
2,O=c1[nH]cnc2sc(-c3ccccc3)cc12,-0.157
3,CC1(C)C(=O)Nc2ccccc2N1C(=O)CSc1nnc2c(Cl)cc(Cl)cn12,0.00651
4,COc1ccc(C(=O)COc2ccc(NC(C)=O)cc2)cc1,-0.0378
5,O=C(/C=C/N1CCOCC1)c1ccc(-c2ccccc2)cc1,-0.364
6,COc1c2c(nc3ccccc13)OC(C(C)(O)CO)C2 (stereo not given),0.415
7,COc1cccc(C2CC(=O)N3CN(c4cccc(Cl)c4C)CSC3=C2C#N)c1OC (stereo not given),-0.00782
8,COc1cccc(C(=O)Nc2ccc(Cl)c(C(F)(F)F)c2)c1,0.0679
9,Cc1ccc(S(=O)(=O)CCC(=O)Nc2ccc3nc(C)sc3c2)cc1,-0.0953
10,O=C(O)c1c2c(nc3ccc(F)cc13)CCC2,-0.176
11,Cc1ccc(C(=O)N2CCN(S(C)(=O)=O)C2)cc1,1.04
12,CCCc1[nH][nH]c(=O)c1C(c1ccc(Br)cc1)C(C#N)C#N (stereo not given),-1.32
13,CCCC1=C([O-])C2N=CC=CC2=[N+](c2ccccn2)C1=O (stereo not given),-0.187
14,O=C1CCCC2=C1C1c3ccccc3C(=O)N1c1ccc(C(=O)c3ccccc3)cc1N2 (stereo not given),-0.774
15,CCc1ccc(NC(=O)CCS(=O)(=O)c2cccc3nsnc23)cc1,0.474
16,COc1ccccc1/C=C/C(=O)OCC(=O)NCc1ccco1,0.0676
17,Oc1cccc(Nc2ncnc3ccccc23)c1,0.297
18,COc1cccc(N2CCN(C3C4CC5CC(C4)CC3C5)CC2)c1 (stereo not given),0.173
19,Clc1ccc(C2C3=C(Nc4ncnn42)c2ccccc2CC3)cc1 (stereo not given),-1.05
20,CS(=O)(=O)N(Cc1ccco1)CC(O)Cn1c2ccccc2c2ccccc21 (stereo not given),0.358
21,Cc1cc(C(=O)COc2ncnc3sccc23)c(C)n1C,2.04
22,Cn1c(-c2ccc(F)cc2)cnc1NCc1cc2c(cc1[N+](=O)[O-])OCO2,-0.307

row,SMILES,z-score
1,Cc1nc2ccccc2c(-c2ccccc2)c1C(=O)c1ccccc1,-2.03
2,CC(C)CC(=O)N1CCN(c2ccc([N+](=O)[O-])cc2Cl)CC1,-0.00677
3,Cc1ccc(O)c(-c2cc(C(F)(F)C(F)F)[nH]n2)c1,-0.574
4,CC1=C(C)C(c2ccccc2)NC(=S)N1 (stereo not given),active: 3.39
5,Cc1ccc(CNCCC2=CCCCC2)cc1,2.07
6,Cc1ccc(-c2nnc(-n3nc(C)cc3C)c3ccccc23)cc1,-0.24
7,O=C(CN1CCN(S(=O)(=O)c2ccccc2)CC1)Nc1ccc([N+](=O)[O-])cc1,-0.0738
8,CCn1c(SCC(=O)Nc2cccc(C)n2)nnc1-c1ccco1,-0.136
9,Cc1nn(C)c(C)c1S(=O)(=O)N1CCC(C(=O)NC2CCCc3ccccc32)CC1 (stereo not given),0.592
10,Cc1ccc(-c2cc(C(=O)N/N=C/c3c(C)nn(-c4ccccc4)c3C)[nH]n2)cc1,-0.454
11,COc1ccc(Cc2nnc(N)s2)cc1OC,-0.214
12,O=C(Nc1ccc(Cl)cn1)c1cnn2cccnc12,0.534
13,CC(C)[C@H](NC(=O)c1ccccc1F)C(=O)Nc1nc2c(s1)CCCC2,2.3
14,CCn1c(C)c(C(C)=O)c(N2CCC(C(N)=O)CC2)nc1=S,0.288
15,COc1ccc([N+](=O)[O-])cc1/C=N/NC(=O)/C(=C\c1cccs1)NC(=O)c1ccccc1,-0.485
16,CCN(CC)CCCN1C(=O)c2oc3ccccc3c(=O)c2C1c1cccc(OC)c1OC (stereo not given),0.625
17,NS(=O)(=O)c1ccc(NC(=S)N2CCN(c3ccc(Cl)c(Cl)c3)CC2)cc1,0.168
18,COc1ccc(C2=NO[C@@H]3C(=O)N(C4CCCCC4)C(=O)[C@H]23)cc1OC,-0.0141
19,Cc1c(C2=CCN(S(=O)(=O)c3ccc(Br)cc3)CC2)c2ccccc2n1C,0.058
20,Cc1ccc(Cn2c(SC3CCOC3=O)nc3ccccc3c2=O)cc1 (stereo not given),-0.587
21,Cc1ccccc1S(=O)(=O)Nc1nc2ccccc2nc1N1CCOCC1,0.635
22,O=C(Nc1ccc2c(c1)OCCO2)C1CCCN(S(=O)(=O)c2cccs2)C1 (stereo not given),-0.198

# Source: PubChem BioAssay AID488969 (Vanderbilt High Throughput Screening Facility, 2010)
